Results from the supplement of paper PMC3334620.
The full ranking holds about 33,000 sequences; the median of “E-score (-0.5 to 0.5)” is about -0.054, and the highest 2% start at about 0.39. Some of the results follow.

Target: Ylr278c (UniProt Q05854)
Assay: PBM E-score (8-mer binding enrichment) (E-score (-0.5 to 0.5)); higher = stronger / more preferred TF binding; most listed sequences are background and not binding sites
Details: protein concentration: 200 nM; construct: GST-DNA-binding domain
Summary of the method: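 Universal all-10-mer Agilent arrays, fresh or stripped once, were converted to double-stranded form by primer extension. GST-tagged yeast transcription factors from PURExpress in vitro transcription/translation, full-length or DNA-binding domain only, were applied at about 100-200 nM and detected with fluorescent anti-GST. After masliner normalisation, the Universal PBM Analysis Suite scored each ungapped eight-base word together with its reverse complement by E-score.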

Row | Sequence | PBM E-score
1 | CAAGCCAA | -0.0404
2 | GAGTAGCA | 0.125
3 | ACACTCCC | 0.00682
4 | CATTTTCA | 0.0235
5 | CAGGAATA | 0.0546
6 | GGTCCGTA | 0.304
7 | CCAAGTTA | -0.172
8 | TTCCGAAA | 0.43
9 | ATTTAATC | 0.135
10 | GGAATAAA | 0.144
11 | CGGACCTA | 0.338
12 | GGGTCCAA | 0.11
13 | ATCATAAA | -0.233
14 | TAAGTACA | -0.225
15 | AATGGCCT | 0.197
16 | GGATGGAA | -0.0283
17 | ATCAGCAG | -0.0402
18 | ACAGCGTC | 0.0813
19 | AGGAGCCT | -0.00023
20 | CACTGGAG | -0.173
21 | ACATCCGG | 0.444
22 | GCTTGGGA | -0.0872
23 | CGGACGCC | 0.366
24 | AATTTTAA | -0.0414
25 | GGTTCGCA | 0.0401

Row | Sequence | PBM E-score
26 | CTGGCTTA | -0.273
27 | CTGTACCC | 0.119
28 | GGTAAAGA | 0.00946
29 | AATGAGTA | 0.103
30 | GCGGTGCA | -0.159
31 | ATAGCCAA | 0.0646
32 | ATTAAATG | 0.0368
33 | CGTCTGAA | -0.218
34 | AAATGCCC | -0.0631
35 | ACCTTCCG | 0.274
36 | ACGATTTG | -0.161
37 | CTATTAGC | 0.00228
38 | AACTGGGT | -0.0916
39 | ATTGAGCC | 0.0318
40 | CAGTTTGC | -0.0455
41 | CATAAAGG | -0.0712
42 | CCTCCTAA | -0.122
43 | CAGTCTCC | 0.182
44 | GATAGACC | -0.0282
45 | ATAAAAAC | -0.171
46 | CACCAGGC | -0.192
47 | TATAAGGA | -0.0387
48 | TAAGTAGA | -0.107
49 | CACCTAAG | -0.134
50 | CCCTTCAG | -0.262

Row | Sequence | PBM E-score
51 | CACCGATA | 0.194
52 | ATCTCAGA | -0.186
53 | AGTTATGG | -0.166
54 | ATGATGCC | -0.175
55 | ATTCACGC | -0.101
56 | GACTACGA | -0.128
57 | GAAGCCCA | -0.1
58 | GATGTACC | -0.146
59 | AACCGGGC | 0.0679
60 | CCGGTGCA | 0.313
61 | AGCTGTAA | -0.205
62 | CCGGCAGG | 0.279
63 | CCTTTGAG | -0.231
64 | CTCATATC | -0.0441
65 | TATGGTCA | -0.274
66 | CCCTGCGA | -0.217
67 | CGTCGGCA | 0.312
68 | CGTCGCAA | 0.0768
69 | CGGCGTGA | 0.237
70 | CCTACCAA | -0.0918
71 | AGGGTGCA | -0.0981
72 | AACTTGAA | 0.123
73 | CTTTCTGA | -0.288
74 | AAATCACC | 0.243
75 | GCACAGGA | -0.0572

Row | Sequence | PBM E-score
76 | GTCAAAGA | -0.0951
77 | AATCCGCT | 0.269
78 | GGATATAC | 0.192
79 | TACGTAGA | -0.129
80 | ACAGCTCA | -0.251
81 | CATTCCGC | 0.32
82 | ATAGACAG | -0.162
83 | CTCGGTTC | -0.132
84 | AAGTATTC | -0.0556
85 | AGAGTGCT | -0.203
86 | CAGCTCAA | -0.0673
87 | ATTTGGCC | -0.0203
88 | AACGCCTT | 0.0115
89 | ATCATAAT | -0.0773
90 | CGGCGTTA | 0.405
91 | CGCATTAG | -0.0756
92 | CTTACGAC | -0.201
93 | AAAGTCAG | -0.0825
94 | AAAACAAG | -0.0822
95 | CGTGCGAG | 0.0659
96 | AGCACGTA | -0.14
97 | GCCCCTAA | -0.0023
98 | CAGTGTGG | -0.192
99 | CAAACTGC | 0.00215
100 | ACGCGTAC | -0.153

Row | Sequence | PBM E-score
101 | GATACGCC | 0.171
102 | AATTAACT | -0.132
103 | AAGCGTAT | -0.0943
104 | AAGCGCTA | 0.0473
105 | CAGCCTAC | 0.00996
106 | CCTCGCCG | 0.117
107 | CGCGGGCA | 0.275
108 | CTCTACGC | -0.25
109 | ACGGGCGC | 0.192
110 | CCCCCATA | -0.183
111 | GCCCGTTA | -0.0559
112 | ATATGCTG | -0.194
113 | CAAGATGC | 0.194
114 | GCAATACA | 0.0519
115 | CAAGTATC | -0.152
116 | ACATCGCA | 0.00734
117 | CATCAGGC | -0.0591
118 | GCTTCGTA | -0.396
119 | ATAAAATC | 0.0159
120 | ACGAGGTG | -0.191
121 | AGTCACTA | -0.118
122 | ACAATGTA | -0.0454
123 | TCACATAA | -0.22
124 | GCCCGAGC | 0.146
125 | ATCGTTAC | -0.201

Row | Sequence | PBM E-score
126 | ATAGGTTG | -0.158
127 | ACCACGCT | -0.15
128 | GAGAGTAA | 0.109
129 | ATGAGGGA | -0.297
130 | AGATGTTG | -0.0926
131 | AGTTTAAA | 0.123
132 | AGGTCGGG | 0.0897
133 | GACGCTCA | -0.0492
134 | GCAGAAGC | 0.00991
135 | ACAGTTAT | -0.0603
136 | AGCTAGCA | -0.208
137 | GACCCCAA | -0.0877
138 | AATGCAGT | -0.115
139 | CCATGTGC | -0.0642
140 | AGCCAGGG | -0.238
141 | ACTGGATG | -0.412
142 | AGCCTCTC | -0.212
143 | CCACACCG | 0.13
144 | CAGCAGCG | -0.00585
145 | CCTGCGAC | -0.139
146 | CGTAAGCA | -0.148
147 | CAGTCCAG | -0.249
148 | AGATAAAC | 0.101
149 | CGGGCCAG | 0.158
150 | CTTGGGGC | 0.0643

Row | Sequence | PBM E-score
151 | CAGCGCAA | -0.00957
152 | AAGACATG | -0.278
153 | GGCCCAAA | -0.00724
154 | ACTGGACC | 1e-05
155 | GAATGTGC | -0.0597
156 | ATCATGAA | -0.0938
157 | GATTATAC | 0.162
158 | AAGCCAGG | -0.173
159 | ATCCCCGC | 0.393
160 | CTACTCGC | -0.0793
161 | CCGACCAG | 0.213
162 | TGCTGCAA | -0.175
163 | ATAGGTGA | -0.101
164 | CAGAGCAA | -0.0987
165 | CCGGAACC | 0.402
166 | CATGACTC | -0.173
167 | CTGGTGCA | -0.237
168 | TGGCGGAA | 0.295
169 | TCCCCCAA | -0.252
170 | ACCGGAAA | 0.369
171 | GGATTTAA | 0.216
172 | CTGTGATC | -0.0143
